30 compounds from the antibiotic and cytotoxicity screens of Wong et al. (2023) can be followed below.

Molecules are shown by their SMILES. The list shows a part of the results.

One assay concerns HSkMC. The experiment in a line: cytotoxicity call (relative viability < 0.9). Particulars: 10 µM.
Another assay concerns S. aureus RN4220. The experiment in a line: growth inhibition call (relative growth <= 0.2). To be noted: 50 µM.

As for `C[C@@H]1CCCCO[C@H](CN(C)S(C)(=O)=O)[C@@H](C)CN([C@H](C)CO)C(=O)c2cc(NC(=O)c3ccncc3)ccc2O1`, the cytotoxicity call in the assay with HSkMC is “inactive”. The growth inhibition call in the assay on S. aureus RN4220 is “inactive”.

In the case of `COc1ccc(CN(C)C[C@@H]2Oc3c(NC(=O)Nc4cccc5ccccc45)cccc3C(=O)N([C@@H](C)CO)C[C@@H]2C)cc1`, the cytotoxicity call with HSkMC is “inactive”. Also, in the assay on S. aureus RN4220, the growth inhibition call is “inactive”.

Consider `C[C@@H]1CCCCO[C@H](CN(C)Cc2ccc(Cl)c(Cl)c2)[C@@H](C)CN([C@@H](C)CO)C(=O)c2cc(NS(C)(=O)=O)ccc2O1`, for which the cytotoxicity call with HSkMC was “inactive”. Further, the growth inhibition call with S. aureus RN4220 was “inactive”.

`COc1ccc(NC(=O)N(C)C[C@@H]2OCCCC[C@H](C)Oc3ccc(NC(=O)c4ccncc4)cc3C(=O)N([C@@H](C)CO)C[C@H]2C)cc1`: the cytotoxicity call with HSkMC was “inactive”. Moreover, in the assay on S. aureus RN4220, the growth inhibition call was “inactive”.

Regarding `O=C(C1=C[C@@H](c2ccc(Br)cc2)C[C@@H](OCc2ccc(CO)cc2)O1)N1CCN(Cc2ccccc2)CC1`, the cytotoxicity call in the assay with HSkMC is “inactive”. In addition, in the assay on S. aureus RN4220, the growth inhibition call was “inactive”.

Turning to `C[C@@H]1CN([C@@H](C)CO)C(=O)c2cc(C#CC3(O)CCCC3)cnc2O[C@H]1CN(C)S(=O)(=O)c1ccc(F)cc1`, the cytotoxicity call in the assay with HSkMC was “inactive”. In addition, the growth inhibition call with S. aureus RN4220 is “inactive”.

For `COc1ccc([Si](C)(C)[C@H]2[C@H](CCn3cc(CCO)nn3)O[C@@]3(C(=O)N(Cc4cccc(N5C(=O)c6cccc7cccc5c67)c4)c4ccccc43)[C@@H]2C)cc1`, the cytotoxicity call in the assay with HSkMC was “inactive”. The growth inhibition call in the assay on S. aureus RN4220 is “inactive”.

Consider `COc1cccc(S(=O)(=O)Nc2ccc3c(c2)[C@@H]2C[C@@H](CC(=O)NCCc4ccccc4)O[C@@H](CO)[C@@H]2O3)c1`, for which, in the assay on HSkMC, the cytotoxicity call is “inactive”. The growth inhibition call with S. aureus RN4220 is “inactive”.

Regarding `CN(C)C(=O)COC[C@]12COC[C@H]1CN(S(C)(=O)=O)C2`, in the assay with HSkMC, the cytotoxicity call was “inactive”. The growth inhibition call in the assay with S. aureus RN4220 was “inactive”.

Take `NCc1cc2ccc(F)cc2[nH]c1=O`: the cytotoxicity call in the assay on HSkMC was “inactive”. For the same compound, in the assay with S. aureus RN4220, the growth inhibition call is “inactive”.

`NC[C@H]1OB(O)c2c(OCCCO)cccc21`: the cytotoxicity call in the assay with HSkMC was “inactive”. Also, the growth inhibition call in the assay on S. aureus RN4220 is “inactive”.

`O=C(O)c1c(Br)c(Br)c(Br)c(Br)c1-c1c2ccc(=O)cc-2oc2cc(O)ccc12`: in the assay on HSkMC, the cytotoxicity call is “inactive”. In addition, the growth inhibition call in the assay with S. aureus RN4220 was “active”.

In the case of `C[C@H]1CCCCO[C@@H](CN(C)Cc2ccc(C(F)(F)F)cc2)[C@@H](C)CN([C@@H](C)CO)C(=O)c2cc(NS(C)(=O)=O)ccc2O1`, the cytotoxicity call in the assay with HSkMC is “inactive”. Further, in the assay with S. aureus RN4220, the growth inhibition call was “inactive”.

Turning to `CCc1nn(C)c2c(=O)c(=O)c2n(C)[nH]1`, the cytotoxicity call in the assay on HSkMC was “inactive”. Besides, the growth inhibition call in the assay with S. aureus RN4220 is “inactive”.

Turning to `C[C@H]1CN([C@@H](C)CO)C(=O)c2cc(-c3cccnc3)cnc2O[C@H]1CN(C)Cc1ccc(-c2ccccc2)cc1`, the cytotoxicity call in the assay with HSkMC was “inactive”. The growth inhibition call in the assay on S. aureus RN4220 was “inactive”.

In the case of `O=C(N[C@H]1CC=CC[C@H](CC(=O)N(CCO)Cc2ccccc2)C(=O)N[C@H](Cc2ccccc2)COC1=O)OCC1c2ccccc2-c2ccccc21`, the cytotoxicity call with HSkMC was “inactive”. For the same compound, in the assay on S. aureus RN4220, the growth inhibition call was “inactive”.

In the case of `COc1ccc(NC(=O)Nc2ccc3c(c2)C(=O)N([C@@H](C)CO)C[C@@H](C)[C@@H](CN(C)Cc2ccc(Cl)c(Cl)c2)O3)cc1`, in the assay on HSkMC, the cytotoxicity call was “inactive”. Moreover, the growth inhibition call with S. aureus RN4220 was “inactive”.

As for `C[C@H](CO)N1C[C@H](C)[C@H](CN(C)Cc2ccc(Cl)c(Cl)c2)Oc2ccc(NC(=O)CCCCCC(=O)Nc3ccccc3N)cc2CC1=O`, in the assay on HSkMC, the cytotoxicity call was “inactive”. Further, the growth inhibition call in the assay on S. aureus RN4220 was “inactive”.

With `NC(=O)N1C(=O)[C@H]2[C@H](C1=O)[C@H]1C=C(c3ccc(CO)cc3)[C@@H]2[C@@H](C2CC2)N1Cc1cc2c(cc1Br)OCO2`, in the assay with HSkMC, the cytotoxicity call was “inactive”. Besides, the growth inhibition call in the assay on S. aureus RN4220 is “inactive”.

On to `CCN(CC)CCNc1ccc(COc2ccccc2/C=C(C)/C=C/C(=O)NO)c2sc3ccccc3c(=O)c12`, for which the cytotoxicity call in the assay on HSkMC was “inactive”. For the same compound, the growth inhibition call in the assay with S. aureus RN4220 is “inactive”.

`COc1ccc(NC(=O)Nc2ccc3c(c2)C(=O)N([C@H](C)CO)C[C@@H](C)[C@H](CN(C)Cc2ccc(C(F)(F)F)cc2)OCCCC[C@H](C)O3)cc1`: the cytotoxicity call with HSkMC is “inactive”. In addition, in the assay with S. aureus RN4220, the growth inhibition call is “inactive”.

In the case of `CCO[C@H]1[C@H]2CC[C@@H]1N(C(=O)N(C)C)CCO2`, the cytotoxicity call in the assay with HSkMC is “inactive”. In addition, the growth inhibition call in the assay with S. aureus RN4220 was “inactive”.

On to `N[C@H]1CCCC[C@@H]1N1C(=O)CSC1=O`, for which the cytotoxicity call in the assay on HSkMC is “inactive”. Besides, the growth inhibition call in the assay on S. aureus RN4220 was “inactive”.

For `CCc1nc2ccc(C(=O)NC3CCN(Cc4ccccc4)CC3)cn2c1N(C)CCN1CCOCC1`, in the assay with HSkMC, the cytotoxicity call was “inactive”. Besides, the growth inhibition call in the assay on S. aureus RN4220 is “inactive”.

For `C[C@@H]1CN([C@@H](C)CO)C(=O)c2cc(NC(=O)Nc3ccc4c(c3)OCO4)ccc2O[C@@H](C)CCCCO[C@H]1CN(C)Cc1ccc(C(F)(F)F)cc1`, in the assay on HSkMC, the cytotoxicity call was “inactive”. The growth inhibition call in the assay with S. aureus RN4220 is “inactive”.

Regarding `O=C(COc1ccc(S(=O)(=O)N2CCOCC2)cc1)N1CCOCC1`, the cytotoxicity call in the assay on HSkMC is “inactive”. Also, in the assay with S. aureus RN4220, the growth inhibition call was “inactive”.

On to `Cc1ccc(S(=O)(=O)Nc2ccc3c(c2)C(=O)N([C@H](C)CO)C[C@@H](C)[C@@H](CN(C)Cc2ccc(Cl)c(Cl)c2)OCCCC[C@H](C)O3)cc1`, for which, in the assay on HSkMC, the cytotoxicity call is “inactive”. Moreover, the growth inhibition call in the assay with S. aureus RN4220 was “inactive”.

In the case of `COc1cc2c(cc1OC)-c1cc3ccc(OC)c(OC)c3c[n+]1CC2.[Cl-]`, the cytotoxicity call with HSkMC was “inactive”. In addition, the growth inhibition call with S. aureus RN4220 was “inactive”.

With `C[C@@H]1CN([C@H](C)CO)C(=O)c2cc(NC(=O)C3CCCCC3)ccc2O[C@@H](C)CCCCO[C@@H]1CN(C)S(=O)(=O)c1ccc(F)cc1`, in the assay on HSkMC, the cytotoxicity call was “inactive”. The growth inhibition call in the assay with S. aureus RN4220 was “inactive”.

Take `Cc1ccc(S(=O)(=O)Nc2cccc3c2O[C@@H](CN(C)Cc2ccc(-c4ccccc4)cc2)[C@H](C)CN([C@H](C)CO)C3=O)cc1`: the cytotoxicity call in the assay on HSkMC (human skeletal muscle cells) was “inactive”. In addition, the growth inhibition call in the assay with S. aureus RN4220 was “inactive”.
